# Measured values as given in PubChem BioAssay AID504339 (National Center for Advancing Translational Sciences (NCATS), 2011).
# The whole screen tested about 390,000 compounds, of which about 17,000 (4.4%) were called active. Inconclusive means that the source gave no clear call. Such entries were picked first, then a sample of the others. Calls follow the shape of the dose curve; as a rule, active = well fitted inhibition curve with a large enough effect; inconclusive = small, poorly fitted or top-dose-only effect; inactive = no such curve, though single readings can be large or run the other way. A potency beside an inconclusive call is a rough fit, not a confirmed value. Where a structure was tested more than once in an assay, its records may differ in their call.
# Target: Lysine-specific demethylase 4A (Homo sapiens) (UniProt O75164)
# Test: qHTS Assay for Inhibitors of JMJD2A-Tudor Domain; also: nearly all actives have a fitted effect of over 50% in size
# Details: AlphaScreen JMJD2A-Tudor / H3K4me3 peptide binding; activity change, negative = inhibition: at 114 µM (top of the series)
# % is scaled to controls: 0 for no effect and ±100 for the full control effect; potency is read from the fitted curve at half-maximal effect; tags tell the direction and shape of the fitted curve.
# Sequence of UniProt O75164 (O75164 whole entry, looked up, the tested form may be a part): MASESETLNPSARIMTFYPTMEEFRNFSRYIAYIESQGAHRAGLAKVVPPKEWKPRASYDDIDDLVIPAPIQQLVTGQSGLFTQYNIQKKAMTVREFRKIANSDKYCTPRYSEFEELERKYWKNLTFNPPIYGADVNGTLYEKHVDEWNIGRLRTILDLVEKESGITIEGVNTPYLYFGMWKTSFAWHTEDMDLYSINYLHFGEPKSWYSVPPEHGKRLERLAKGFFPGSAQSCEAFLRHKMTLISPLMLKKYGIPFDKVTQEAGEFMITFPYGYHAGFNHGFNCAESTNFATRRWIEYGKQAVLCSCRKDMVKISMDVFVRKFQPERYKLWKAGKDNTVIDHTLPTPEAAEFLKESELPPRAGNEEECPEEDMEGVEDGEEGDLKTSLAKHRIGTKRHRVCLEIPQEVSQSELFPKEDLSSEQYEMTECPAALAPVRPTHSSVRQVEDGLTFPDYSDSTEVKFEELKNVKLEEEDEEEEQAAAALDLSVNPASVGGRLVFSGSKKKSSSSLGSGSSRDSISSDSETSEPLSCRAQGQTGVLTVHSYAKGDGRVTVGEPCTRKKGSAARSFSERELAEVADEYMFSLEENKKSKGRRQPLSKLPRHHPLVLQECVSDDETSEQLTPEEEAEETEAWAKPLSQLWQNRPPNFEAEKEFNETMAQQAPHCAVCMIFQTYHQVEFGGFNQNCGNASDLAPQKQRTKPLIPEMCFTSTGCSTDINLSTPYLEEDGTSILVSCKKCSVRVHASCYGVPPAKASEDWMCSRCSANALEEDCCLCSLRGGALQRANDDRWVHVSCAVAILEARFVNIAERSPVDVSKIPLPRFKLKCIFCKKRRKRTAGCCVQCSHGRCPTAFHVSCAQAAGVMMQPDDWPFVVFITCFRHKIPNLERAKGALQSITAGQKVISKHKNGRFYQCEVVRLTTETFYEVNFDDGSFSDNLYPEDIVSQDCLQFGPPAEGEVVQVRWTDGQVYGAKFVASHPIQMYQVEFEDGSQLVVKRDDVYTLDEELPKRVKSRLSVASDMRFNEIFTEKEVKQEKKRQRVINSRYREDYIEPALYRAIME
Structure (SMILES),Potency,"activity change, negative = inhibition"
CC(Cc1c[nH]c2ccccc12)C(=O)NCc1ccco1 (centres undefined),"inconclusive: 63.1 µM [inhibitor, single point]",
S=c1[nH]cc(-c2ccccc2)n1-c1cccc(Cl)c1,active: 56.2 µM,
Cc1nn(-c2ccccc2)c(N)c1C(c1ccc(C(C)C)cc1)c1c(C)nn(-c2ccccc2)c1N,"inconclusive: 79.4 µM [inhibitor, partial curve]",
O=C(NN1C(=O)/C(=C/c2cccs2)SC1=S)c1ccncc1,,inactive: -30.9%
COc1ccc(NS(=O)(=O)c2ccc(N3CCCCC3)c(N)c2)cc1,"inconclusive: 44.7 µM [inhibitor, partial curve]",
O=C(NCCCc1cnc[nH]1)NCCCN(Cc1ccc(Cl)c(Cl)c1)c1ccc(Br)cn1,active: 50.1 µM,
CSCC[C@H](NC(=O)OCc1ccccc1)C(=O)O,"inconclusive: 56.2 µM [inhibitor, partial curve]",
CC(C)NCC#CCOc1ccc(Cl)cc1,active: 44.7 µM,
COc1ccc(-c2nc(NC(=O)C3CCN(c4nc5ccccc5o4)CC3)sc2C)cc1,"inconclusive: 5.62 µM [inhibitor, partial curve, poor fit]",
c1ccc(-c2nnc(-c3ccccn3)s2)nc1,"inconclusive: 12.6 µM [inhibitor, partial curve]",
Cc1cccc(C#Cc2ccccc2)n1,"inconclusive: 89.1 µM [inhibitor, single point]",
Cc1ccc(NC(=O)COC(=O)C2CC2(Cl)Cl)cc1C (centres undefined),"inconclusive: 14.1 µM [inhibitor, full curve]",
CCCn1c(-c2ccncc2)n[nH]c1=S,active: 7.94 µM,
COC(=O)C1=C(C)N(Cc2cccnc2)C(=O)C1,,inactive: -19.5%
CC1Cc2ccccc2N1C(=O)CN1CCC(C(N)=O)CC1 (centres undefined),,inactive: -0%
C#CCOCCOCCOCCNc1nc(N2CCN(C(=O)[C@H](CCC(=O)O)n3cc(C(N)CC(C)C)nn3)CC2)nc(N2CCN(C(=O)[C@H](Cc3cc4ccccc4[nH]3)n3cc(C(N)CC(C)C)nn3)CC2)n1 (some centres undefined),"inconclusive: 56.2 µM [inhibitor, partial curve, poor fit]",
O=C(O)C1Cc2[nH]cnc2C(c2ccccc2O)N1 (centres undefined),active: 89.1 µM,
Cn1cnnc1Sc1ccc(/C=C/C(=O)c2ccc(O)cc2)cc1[N+](=O)[O-],"inconclusive: 44.7 µM [inhibitor, full curve, poor fit]",
CCCCCC(=O)NC(NC(=S)Nc1ccc(S(N)(=O)=O)cc1)C(Cl)(Cl)Cl (centres undefined),,inactive: -24.9%
Cc1ccc(C)c(OC(=O)CSc2nnc(-c3ccc4c(c3)OCO4)o2)c1,,inactive: -19.5%
N#Cc1c2n(c(=O)[nH]c1=O)CCCCC2,"inconclusive: 2.51 µM [inhibitor, full curve]",
CCCCn1c(SCC(=O)NCc2ccccc2)nc2ccc(N3CCOCC3)cc2c1=O,"inconclusive: 35.5 µM [inhibitor, partial curve]",
CCN(CC)C1CC(=O)N(c2cccc(Cl)c2)C1=O (centres undefined),,inactive: -6.9%

Structure (SMILES),Potency,"activity change, negative = inhibition"
COC(=O)c1ccc(Cn2c(SCC(=O)N(C)c3ccccc3)nc3ccccc32)cc1,,inactive: -25.2%
CCCCc1ccc(NC(=O)c2ccc3c(c2)CCN3S(=O)(=O)c2ccccc2)cc1,,inactive: -20.8%
COc1ccc(OC)c(CNc2sc3c(c2C(=O)Nc2cc(OC)ccc2OC)CCCC3)c1,"inconclusive: 20 µM [inhibitor, full curve]",
COc1ccc2nc3cc(Cl)ccc3c(C#N)c2c1,,inactive: -13.8%
COCCNC(=O)C(OC(=O)c1cc2oc(C)cc2n1C)C(C)C (centres undefined),,inactive: -15%
O=C(C[C@H]1C[C@H](C(=O)N2CCCCC2)[C@@]2(CCc3ccccc3)c3[nH]c4cc(-c5ccco5)ccc4c3CCN2C1=O)NCc1ccco1,"inconclusive: 15.8 µM [inhibitor, full curve, poor fit]",
CC(C)CC(=O)NC(=S)Nc1ccccc1N1CCCC1,"inconclusive: 44.7 µM [inhibitor, partial curve]",
CC(=O)Nc1ccc(C(=O)/C=C/c2ccco2)cc1,"inconclusive: 56.2 µM [inhibitor, partial curve, poor fit]",
Cc1ccc(C2C3=C(CCCC3=O)Nc3[nH]c(=S)[nH]c(=O)c32)cc1 (centres undefined),active: 10 µM,
CC1CCCN(C2=C(NS(=O)(=O)c3ccc(Br)cc3)C(=O)c3ccccc3C2=O)C1 (centres undefined),active: 3.55 µM,
Cc1ccc(C)c(N2CCN(CCCNC(=O)c3nnc(Cc4ccc(F)cc4Cl)o3)CC2)c1,"inconclusive: 2.51 µM [inhibitor, full curve, poor fit]",
COc1ccc(N2CCN(C(=O)CSc3nnc4c(C)cc5c(C)cc(C)cc5n34)CC2)cc1,"inconclusive: 35.5 µM [inhibitor, full curve]",
CCOC(=O)c1cc(S(=O)(=O)N2CCN(c3ccc(F)cc3)CC2)[nH]n1,,inactive: -21.1%
CC(=O)c1c(C)[nH]c(C(=O)CSc2nc3ccc(C)cc3[nH]2)c1C,"inconclusive: 89.1 µM [inhibitor, single point]",
O=C(CC1OC(=O)c2ccccc21)Nc1cccc(S(=O)(=O)N2CCCCCC2)c1 (centres undefined),"inconclusive: 20 µM [inhibitor, partial curve]",
Cc1ccc(C(=O)NC(=S)Nc2ccc(N3CCOCC3)cc2)c(C)c1,"inconclusive: 28.2 µM [inhibitor, full curve]",
CCOn1c(=O)c(-c2ccc(Cl)cc2)[n+]([O-])c2ccccc21,"inconclusive: 35.5 µM [inhibitor, single point]",
NC(=O)CNC(=O)[C@@H]1CC2(CC(c3cccc(Br)c3)=NO2)CN1C(=O)c1ccc(Br)cc1 (some centres undefined),"inconclusive: 25.1 µM [inhibitor, partial curve]",
CCCOc1ccc(NC(=O)C2CC(=O)N/C(=N/N=C(C)/C=C/c3ccc(N(C)C)cc3)S2)cc1 (centres undefined),"inconclusive: 44.7 µM [inhibitor, partial curve]",
O=C(CCC1N=C2c3ccccc3N=C(SCC(=O)NCc3ccco3)N2C1=O)NCc1ccco1 (centres undefined),"inconclusive: 35.5 µM [inhibitor, partial curve]",
Cn1c(NC(=O)c2ccc(Cl)cc2)c(-c2ccccn2)c(=O)c2ccccc21,"inconclusive: 89.1 µM [inhibitor, single point]",
O=C(NCC(=O)N1CCCCCC1)c1ccc(Cl)cc1,"inconclusive: 39.8 µM [inhibitor, single point]",
O=C(CCNS(=O)(=O)c1ccc(Cl)cc1)OCC(=O)c1ccc[nH]1,,inactive: -5.48%

Structure (SMILES),Potency,"activity change, negative = inhibition"
COc1ccccc1C1CCN(c2ccc([N+](=O)[O-])c(OC)c2)CC1,"inconclusive: 22.4 µM [inhibitor, full curve]",
Cc1ccc(N2CCN(C(=S)c3ccc(-c4ccccc4[N+](=O)[O-])o3)CC2)cc1,active: 31.6 µM,
Clc1nc(Oc2ccccc2)nc(-c2cn(-c3ccccc3)c3ccccc23)n1,"inconclusive: 79.4 µM [inhibitor, partial curve]",
O=C(NCc1ccccc1Cl)c1ccc(NC(=O)N2CCSc3ncccc32)cc1,,inactive: -7.59%
O=C(O)c1ccc2ncsc2c1,active: 20 µM,
COc1cccc(N2CCN(C(=O)c3cc4c(=O)n(Cc5ccco5)ccc4nc3C)CC2)c1,,inactive: -35%
O=[N+]([O-])c1cccc(CSc2ncnc3ccccc23)c1,"inconclusive: 50.1 µM [inhibitor, partial curve]",
CC1CCCCN1CCCn1c(=S)[nH]c2ccccc2c1=O (centres undefined),"inconclusive: 89.1 µM [inhibitor, single point]",
COC(=O)c1cc(OC)nc(OC)c1,,inactive: -5.32%
O=C(CSc1nc(-c2ccc(F)cc2)nc2c1Cc1ccccc1O2)Nc1ccc(C(=O)O)cc1,active: 10 µM,
CCN1CCN(S(=O)(=O)c2ccc(Cl)c(C(=O)N(C)Cc3ccc(C(C)(C)C)cc3)c2)CC1,"inconclusive: 56.2 µM [inhibitor, partial curve]",
Oc1[nH]c2ccccc2c1C=Nc1ccc2c(c1)OCO2,"inconclusive: 44.7 µM [inhibitor, partial curve]",
O=C(Nc1cccc(Cl)c1N1CCOCC1)c1cc([N+](=O)[O-])ccc1N1CCOCC1,"inconclusive: 14.1 µM [inhibitor, partial curve]",
NC(=O)CSc1nnc(Cc2ccc3c(c2)OCO3)n1C1CCCCC1,"inconclusive: 17.8 µM [inhibitor, full curve]",
O=C(Nc1nnc(S(=O)(=O)N2CCCCCC2)s1)c1ccccc1Br,active: 12.6 µM,
Cc1cc(OCCCCn2ccnc2)cc(C)c1Cl,"inconclusive: 56.2 µM [inhibitor, partial curve]",
CCOc1cc(/C=C2\SC(=S)N(NS(=O)(=O)c3ccc(C)cc3)C2=O)ccc1O,"inconclusive: 56.2 µM [inhibitor, partial curve]",
Cc1ccc(NC(=O)C2CCCN(S(=O)(=O)c3c(C)n[nH]c3C)C2)cc1C (centres undefined),,inactive: 6.67%
Cc1ccc(N=Nc2c(O)ccc3n[nH]nc23)cc1,"inconclusive: 3.98 µM [inhibitor, full curve]",
CCOC(=O)c1ccc(NS(=O)(=O)c2ccc3[nH]c4c(c3c2)CCCCC4)cc1,"inconclusive: 44.7 µM [inhibitor, partial curve]",
CC(=O)N1CCc2cc(S(=O)(=O)NC(Cc3ccccc3)C(=O)Nc3ccc(Cl)cc3)ccc21 (centres undefined),,inactive: -1.67%
CCc1nn(CC(=O)N2CCN(c3cccc(C(F)(F)F)c3)CC2)c(=O)c2cccn12,"inconclusive: 39.8 µM [inhibitor, full curve, poor fit]",
Cc1cccc(Nc2ncnc3c2cnn3Cc2ccccc2)c1,"inconclusive: 17.8 µM [inhibitor, full curve]",
